Results on 80 sequences are retold here after the supplement of paper PMC10681739.

Whole data set: some 2,700 sequences, median “arbitrary fluorescence units” near 4,100, cut for the highest 2% near 54,000. Some of the results follow.

The assay deals with T1, ETS1 (UniProt P14921).
T1 sequence: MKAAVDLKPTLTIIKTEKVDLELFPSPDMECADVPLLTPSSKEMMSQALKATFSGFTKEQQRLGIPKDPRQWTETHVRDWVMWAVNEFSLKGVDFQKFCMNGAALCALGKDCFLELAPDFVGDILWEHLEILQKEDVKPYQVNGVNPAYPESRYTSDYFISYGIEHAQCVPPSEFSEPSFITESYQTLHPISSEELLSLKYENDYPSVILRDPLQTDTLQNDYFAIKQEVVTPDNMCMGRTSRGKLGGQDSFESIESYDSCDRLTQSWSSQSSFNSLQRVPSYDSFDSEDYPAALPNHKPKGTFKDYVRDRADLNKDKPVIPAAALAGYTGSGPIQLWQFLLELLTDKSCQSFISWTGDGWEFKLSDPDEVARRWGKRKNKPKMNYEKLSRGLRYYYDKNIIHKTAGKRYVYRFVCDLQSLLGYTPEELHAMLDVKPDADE
Kind of assay: ETS1 binding intensity (PBM fluorescence) (arbitrary fluorescence units); higher = stronger binding. Particulars: ETS1 concentration 10 nM. The protocol:
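gcPBM on wild-type 36-bp genomic probes with two neighbouring ETS1 sites (4-24 bp apart). Recombinant human ETS1 (10 nM) was detected with anti-ETS1 antibody fluorescence. Values are medians over 3 replicate spots. The probes sit in constant array flanks that are not printed.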
As to AAACTCCAGAGGAAGCCGGCTAAGGATGTGCTTGTT, the ETS1 binding intensity was determined as 191.
The sequence GCCCTCCCTTGTTTCCGCTGCATCCAGACTTCCTCA returned an ETS1 binding intensity of 10200.
On to TAAGAGTGGGCCGGATGTGTTTCCTGCTACCCCAGG, for which the ETS1 binding intensity worked out at 13600.
AAGAGTTCCGGTCCGATTCTGCGAAAGAGGAAGTGA came in with an ETS1 binding intensity of 33700.
The same measure for TCTTCTCTTCCGGCGCCAGGCACACATCCGGGAGCG: 14200; for GTGAAGGGAAGTAACTCCAGAGAAACGGGAAGCTTC: 267; for CAATCTTAGACTTCCTCCAACATCCCTATAAAATTC: 3070.
The figure for GCTTCTTGGGAAGTAGCATGAGCCGGAAGACAGCGA is 251; for CAGGAGAGCTTCCCGGAGTCGACCTTCCTGCTGGCT it is 549; for ACTCGGTAGGAGGGAAGTGGCTTCCTTATCTGCAAA it is 356.
The same measure for GAACCCCGGAACCACCACCACTAACGGAACCAGCCC: 321.
On to CAGACACTTCCTTCTCTGCAATAGGAGGAAGTGATT, for which the ETS1 binding intensity came to 7830.
The same measure for AGCGAAAGAGGAAACTGCAGAGGAGGAAGCTGCGCC: 727.
The same measure for TCCCTGCTTCCTGTGTCTCTGTCATTTCCTCCCATT: 26200; for CCAGGTGTTTCCTACAAGGTAGGGAGGAAGTATGTT: 660; for TGCTTTGCCTTCCTCCCGCTCAGTTTCCTGCTCACT: 1060.
The figure for AGAAGCGACTTCCTAGATCTCCCGGAAGTCCCTTTC is 6000; for CTGTAAATGAGGAAGTGACAGCTTCCTCCTAGAGCA it is 2640; for AAGAGTAACACACAGGAAGGAAGCTCACTGAGGTGC it is 676.
In turn, CGCCCACTTCCTATCCAGGGAGGAAGTGGCGAGGGC registered an ETS1 binding intensity of 11200.
With GTTTGATCCAGGAAATGGTGTCCTTCCTGTGGACCT, the ETS1 binding intensity was found to be 3960.
In the case of AGCGCTTCCGGGTCAGCCCCTGCGATACTTCCGGGG, the ETS1 binding intensity amounted to 28000.
The figure for CTCCAGAGTGGCCGGAAGCTTCCTGGGAGAGGCCTG is 6370.
The figure for AAATTTCCTGAGGCCTCCCCAGCCATGCTTCCTGTA is 13700; for GCTCCACCTTCCGGCCCATGGACACGGATGCCGAGG it is 16100; for GCGCTTCGGGCCCTTCCGGCTTCCCGGGCCTCCCGG it is 8330.
In turn, GGAGAGGAAGCACAGCTGCAGTGGTGAGGAAATACA yielded an ETS1 binding intensity of 228.
CAGTCCTTCCTGTTTAGTTTATGCCAGGAAATTAAT returned an ETS1 binding intensity of 29800.
As to CTCTTGGCAACATCCGGTCACATCCCCTCCGCTATT, the ETS1 binding intensity worked out at 60900.
The figure for TAGGCGACAGGAAAGGGCGGTGTTTTCCGGCTGGGA is 1800; for AGTCACTTCCTTCTGCAGGCACACACTTCCTCTATG it is 13300; for TCGCGACATCCGCCCAGCGGCGGCCGGAATCTCGCG it is 22800.
CTGCGTCCGTTCCGCCCAGGCCCTTCCGGCTCACGC returned an ETS1 binding intensity of 6200.
The figure for AGCATCTGCTGGGGGAAACGGAAGCAGCCCAGATGG is 774.
The same measure for CCCCTGGCTTCCGCCGGGCGCGAGCGGAAGTTACGT: 14400; for TCCTGGAATTTCCCGTCCTCAGACTTCCTGATCCTC: 3820.
In turn, GAAAACTGGGAGAGGAAGCAGGATTCTGCATCCTGG registered an ETS1 binding intensity of 519.
The figure for GCCGAATTAGTACTTCCGCTTTCCGTGCTGTTTAAC is 24300.
For the sequence AGGCGAGGGCTTCCTGCTGTCCTTCCTGTTTGTAAT, the ETS1 binding intensity came to 9500.
Sequence TGATTCACATCCTGTCTCTGCCTTTTCCTGGCCCTG displayed an ETS1 binding intensity of 31200.
The figure for CCTCAGTTCCTGTCTGGTTTTTGCCCGGAAGCCACT is 7440; for GGAAAGGAAATGCAAACTTATTTGGCAGGAAAACAA it is 952.
The figure for ACGCGCCGGAAGCCACGAGCCGCATTTCCTGCCGCG is 9480; for TGAAGACGGAAACCTGAGAACACCATTTCCTGTGCT it is 4470; for ACCAGAAACGGAAGAGAGCGCGGGGGATGTGTTTGG it is 685.
The same measure for GCAACTTCCGCCCTGAGAAGGGTGGGGCTTCCGTCT: 63000.
Sequence TTAGAATTTTCCTGTGAACCAGGCGGATGCCCTGCC yielded an ETS1 binding intensity of 1030.
The figure for GAGAGTGAGGAAGTGGCTTATCTGGGGATGTGCTTC is 1290.
The figure for TGGGAGTTGTAGTTTCCTGTTTCCGGCTTCGCTTCG is 20000; for TGCAGGGCTGGCAGGAAACAGGAAAGAGGCTAGCAT it is 1700; for GGGCGGGAAGCGGGGCAGCCGCCGTCCGGAAGCTGG it is 585.
Consider AGGCAGCGGAACTGACGCCGGCGAGCTTCCGGGGCG, for which the ETS1 binding intensity came to 2550.
The figure for GAGACAGGAAGTGAGCATCTGCCCACCGGAAGCTGA is 22700; for AAGGCCGATAACATCCCCACTTCCTTTTCTCACCTC it is 2100; for GGAGCCCGGAAGAGGCGCCGTGCACTTCCGGGTCGA it is 8940.
Regarding CGGGAGTTCCGCAGCCGCCGCCTTACCGGAACCCAA, the ETS1 binding intensity amounted to 638.
The figure for CAAAACAGGAACCACAAACCCCAGCTTCCTCTTGCA is 428.
The figure for CTCGGCAGGAAGCGCCCAGCCTGATTTCCTACAAGT is 3620.
As for TGCGGGGCGGAAGTGACGCACGAGAGGAAGTCCGTC, the ETS1 binding intensity turned out to be 13000.
The figure for CCACCGGAAGGCCGGATGTGTTCCTATCACGTACCC is 19300.
The figure for CCTGGGACCGGATGTGGTCAGGCTTCCTGAGAGTCG is 27300.
Regarding TCATCTCTCCTGCAGGAAGGAAGTCCTGCCTCCCAC, the ETS1 binding intensity was 315.
On to ACCGCTCTTTCCGGGTTTGCGAGCGGAAGTGGACGA, for which the ETS1 binding intensity is 7930.
The figure for CATTCGCCCGGAAATCTCTGGGAGGAAGTATCAGCA is 3150; for ACGTCACTACCTTCCTGACTCCGGAAGCACTTACAG it is 2430; for CTTCTCACACCGGATGTCTGGGTTCCTGTCTTCCAG it is 22600.
The same measure for AGTTATCGGAAGTGATGTGCACAGCCGGATATTCCC: 2230; for GCTGCACAAAGGGAAATGCACTTCCTGCCCCAGCAG: 7060.
The same measure for CCTCAGTTTCCTCATTGGCAGAATGGGGAAATGATT: 2070; for GTATGTGGTTTCCTGTGTCTTTACATCCTCACCAGT: 26300; for TGTGCTCATTTCCTGTCTGCACGTTTCCTTTTCCCC: 42900.
In turn, AGAGCAGCAGGATATTTCTGTATATCCTGTTTAGCC came in with an ETS1 binding intensity of 2760.
The same measure for GAATTACATCCTGCCTGCCACGGTAAGGAAACTGCT: 33200; for TACCACAAAAGGAAGTTAGAACTTCCTGTACTGACA: 14500.
The same measure for TGGCCCGGAAGCTTCTCTGCTGACCCGGAAGCAGAG: 3960.
The figure for GCGCGCTTCCTGTGAGGTCAGGTGGGAGGAAACCGC is 31000; for ATATTTTATTTCCGCTTGGAGGCAGGAAGGGCCTTG it is 14700; for CGGCAGGATGGAGTGAGTGCCAGCAGAGGAAATGCC it is 188.
For the sequence CCCAGGATGCCCTGCGACTAACCAAGCCGGAAGACG, the ETS1 binding intensity was 373.
The figure for GCGCGTCTGCGCCGGAAGCGGAAATGGTTGGAGCCC is 10500.
